Measured values published in PubChem BioAssay AID488969 (Vanderbilt High Throughput Screening Facility, 2010).
Whole data set: some 110,000 compounds, median “z-score” near -0.1, cut for the highest 2% near 2. The list shows a part of the results. Activity calls are given as the source filed them.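 The calls were made as follows: active = z-score in the third read window above 3 or below -3; inactive = the rest.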

target: Metabotropic glutamate receptor 8 (Rattus norvegicus) (UniProt P70579); experiment: mGluR8 Gi/Go-coupled signaling modulation – cell-based, rat, thallium flux, HTS, primary screen (AID 488969); conditions: HEK293 rat mGluR8, GIRK (G protein-gated inwardly rectifying potassium channel) thallium flux, FluoZin2; at 10 µM; stronger effect = higher value; submaximal glutamate (EC20) added with thallium
Chain of UniProt P70579 (P70579 whole entry, looked up): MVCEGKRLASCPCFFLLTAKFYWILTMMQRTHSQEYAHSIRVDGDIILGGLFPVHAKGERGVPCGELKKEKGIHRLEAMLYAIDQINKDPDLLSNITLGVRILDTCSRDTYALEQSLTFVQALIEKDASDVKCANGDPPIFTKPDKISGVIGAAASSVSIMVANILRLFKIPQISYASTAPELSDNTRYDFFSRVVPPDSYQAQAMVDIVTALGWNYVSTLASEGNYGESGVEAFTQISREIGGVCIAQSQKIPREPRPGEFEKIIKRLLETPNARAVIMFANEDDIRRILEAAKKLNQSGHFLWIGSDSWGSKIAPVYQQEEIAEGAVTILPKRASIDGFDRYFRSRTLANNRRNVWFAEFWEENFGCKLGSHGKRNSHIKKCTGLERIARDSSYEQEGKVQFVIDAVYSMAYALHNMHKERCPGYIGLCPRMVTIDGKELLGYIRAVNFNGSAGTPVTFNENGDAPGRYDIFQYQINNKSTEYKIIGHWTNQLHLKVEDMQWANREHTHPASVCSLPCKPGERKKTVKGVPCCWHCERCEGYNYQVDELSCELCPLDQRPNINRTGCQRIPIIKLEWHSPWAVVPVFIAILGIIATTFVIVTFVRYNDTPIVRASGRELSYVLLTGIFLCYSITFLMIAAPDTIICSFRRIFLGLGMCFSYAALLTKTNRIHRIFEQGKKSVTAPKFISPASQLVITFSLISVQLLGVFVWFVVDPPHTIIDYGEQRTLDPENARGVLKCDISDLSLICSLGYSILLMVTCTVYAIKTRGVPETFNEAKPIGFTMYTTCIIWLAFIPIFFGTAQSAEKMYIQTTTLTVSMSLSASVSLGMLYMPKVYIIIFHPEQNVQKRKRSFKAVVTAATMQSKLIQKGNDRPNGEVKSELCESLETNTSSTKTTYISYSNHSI

SMILES | z-score
CCn1nccc1C(=O)Nc1ccc(Cl)cc1Cl | -0.1
CSc1ccccc1C(=O)NCC1CCCO1 (centres undefined) | 0.131
CC(C)(C)c1ccc(-c2nnc(SCCN3C(=O)c4ccccc4C3=O)o2)cc1 | 0.012
COc1cc(-n2c(C)nc3cc(C(=O)N4CCOCC4)ccc32)cc(OC)c1OC | -0.458
Cc1ccc(NC(=O)CCNC(=O)c2ccco2)cc1 | -0.441
Cc1cccc(Cn2c(N3CCc4ccccc4C3)nc3c2c(=O)[nH]c(=O)n3C)c1 | -0.576
CN(C(=O)COC(=O)C(Cc1ccccc1)NC(=O)c1ccccc1)c1ccccc1 (centres undefined) | -0.597
Cc1cc(Cl)c(S(=O)(=O)N2CCN(c3ccccc3)CC2)cc1OCC(N)=O | 0.194
Brc1ccc(-c2nnc(-c3cccc(Br)c3)o2)cc1 | -0.0484
CCC(=O)Nc1ccc(C(=O)OCc2ccc(Cl)c(Cl)c2)cc1 | -0.236
O=C(/C=C/Nc1ccc(F)cc1Br)c1ccccc1 | -0.125
O=C1c2[nH]nc(-c3ccccc3O)c2C(c2ccccc2F)N1Cc1ccco1 (centres undefined) | -0.966
CCc1cc2c(=O)c(-c3cscn3)coc2c(CN(C)C)c1O | -0.0987
CN(C)c1ccc(N=Nc2ccccc2C(=O)OCC(=O)NCC2CCCCC2)cc1 | -0.149
CC(=O)c1c(C)[nH]c(C(=O)OCC(=O)NCCc2ccc(Cl)cc2)c1C | -0.0247
O=C(NNC(=S)NC(=O)c1ccccc1[N+](=O)[O-])c1ccccc1 | 0.138
O=C(Oc1ccc(-c2nccc(-c3ccccn3)n2)cc1)c1cccc(C(F)(F)F)c1 | -0.0661
CC(=O)N1c2ccccc2C(C)(C)C2CCC(C)CC21 (centres undefined) | -0.247
CCCOc1ccccc1N/C(=N/c1nc(C)cc(C)n1)NC(=O)Nc1ccc(Cl)cc1 | -0.381
Cc1ccc(N/N=C(\C#N)C(=N)N2CCOCC2)cc1 | 0.0551
Cc1ccc(NC(=O)CSc2ccccc2NC(=O)c2ccccc2Cl)cc1Cl | 0.0238
COc1ccc(C2c3c(ccc4ccccc34)Oc3ncn4nc(-c5ccco5)nc4c32)cc1 (centres undefined) | -0.325

SMILES | z-score
CC1CC1C(=O)OCC(=O)NCc1ccc(Cl)cc1 (centres undefined) | -0.151
O=C(c1ccc(F)cc1)C1CCN(C(=O)Nc2ccc(F)cc2)CC1 | 0.764
O=C(NCCc1ccc(Cl)cc1)c1cccnc1 | 0.268
CC1Cc2nc(SCC(=O)NCC3CCCO3)n(Cc3ccccc3)c(=O)c2S1 (centres undefined) | 0.0446
CCNS(=O)(=O)c1ccc2nc(NC(=O)c3cccnc3)sc2c1 | 1.17
CC(=O)N1CCN(C(=S)c2ccc(N(C)C)cc2)CC1 | -1.33
CCOC(=O)/C=C1\SCC(=O)N1CC(=O)Nc1ccc2c(c1)CCC2 | 0.245
Cc1noc(/C=C/N(C)C)c1S(=O)(=O)N1CCCC(C(=O)NCc2ccc(Cl)cc2)C1 (centres undefined) | -0.29
Cc1cccc(NC(=O)CSc2nc3c(oc4ccccc43)c(=O)n2-c2ccccc2)c1 | 0.449
CCC(=O)Nc1ccc(-c2nnc(SCC(=O)NCC3CCCO3)n2C)cc1 (centres undefined) | -0.274
Cc1ccc(C(=O)/C=C2\NCC(C)NC2=O)cc1 (centres undefined) | 0.338
CC(C)=C1C2CCC1C1C(=O)N(NC(=O)COc3ccc(Cl)c(C)c3)C(=O)C21 (centres undefined) | -0.481
COc1ccc(CNC(=O)c2cnn3c(C(F)F)cc(C)nc23)cc1 | 0.456
COC(=O)C(C)Oc1ccc(-c2nccc(-c3cccs3)n2)cc1 (centres undefined) | -0.201
O=C1CC(N2CCN(c3ccccc3Cl)CC2)C(=O)N1c1ccccc1 (centres undefined) | -0.24
CCCN(c1ccc(C(C)C)cc1)S(=O)(=O)c1c(C)noc1C | 0.356
Cc1c(NC(=O)COC(=O)c2ccc[nH]c2=O)c(=O)n(-c2ccccc2)n1C | -0.172
Cc1cc(C)cc(N=Cc2[nH]c3ccc(Br)c(Cl)c3c2O)c1 | -0.078
CCCCn1c(=O)[nH]c2nc3cc(N)ccc3nc2c1=O | -0.557
COC(=O)c1c(NC(=O)c2ccc(C)cc2)sc(Cc2ccccc2)c1C | 0.935
CC(C)OP(=O)(c1ccccc1)c1ccccc1 | -0.264
CCOC(=O)C1C(C)=CC(=O)CC1c1ccco1 (centres undefined) | -0.0303

SMILES | z-score
CC(C)=C1C2CCC1C1C(=O)N(c3ccc(C)c(C)c3)C(=O)C21 (centres undefined) | -0.284
Cc1ccc(C(c2nnnn2CCc2ccccc2)N2CCC(C)CC2)cc1 (centres undefined) | -0.365
CCOCCCNC(=O)c1ccc(OC)cc1 | -0.0294
CCC1(CC)NC(=O)NC1=O | -0.161
CCN1C(=O)CC(N2CCC(C(=O)N3CCOCC3)CC2)C1=O (centres undefined) | -0.151
O=C(COc1ccc(S(=O)(=O)NC2CCCCC2)cc1)N1CCN(c2cccc(Cl)c2)CC1 | 0.0292
N#C/C(=C(/O)C(Cl)c1ccccc1)c1nc2ccccc2s1 (centres undefined) | -0.476
Cn1c(=O)c2c(=O)cc(NNC(=O)C(C)(C)C)[nH]c2n(C)c1=O | -0.232
COC(=O)c1ccc(COc2ccc(/C=C(\C#N)c3nc4ccccc4[nH]3)cc2OC)o1 | -0.106
COC(=O)c1ccccc1NC(=O)C(C)NS(=O)(=O)c1ccc(OC)cc1 (centres undefined) | 0.0602
C/C(=N\NC(=O)CSc1nc(C)cc(C)n1)c1cccs1 | -0.111
C=CCNC(=S)NNC(=O)C(CCCC)CC(C)(C)O (centres undefined) | 0.000994
COc1cccc2sc(Nc3nc(-c4ccccn4)cs3)nc12 | active: 5.31
CCCCN=C1NC(=O)C(CC(=O)Nc2ccc(Cl)cc2)S1 (centres undefined) | -0.199
O=C(CSc1nc2ccccc2c(=O)n1-c1ccccc1)N1CCCC1 | -0.689
COc1cc2[nH]c(=O)n(CCC(=O)N3CCN(c4cc(Cl)ccc4C)CC3)c(=O)c2cc1OC | -0.0849
COc1ccc(S(=O)(=O)Nc2nc3ccccc3nc2NCc2ccc3c(c2)OCO3)cc1 | -0.2
O=C(c1nc2nc(-c3ccccc3)cc(C(F)(F)F)n2n1)N1CCCCC1 | -0.137
COc1ccc(-c2nc(N)n(C(=O)Cc3ccccc3)n2)cc1 | 0.283
C=CCOC(=O)C1=C(C)NC(=S)NC1c1cccs1 (centres undefined) | -0.36
N#CCCSCc1ccc(C(=O)O)o1 | -0.113
N#CC1=C(N)Oc2cc(O)ccc2C1c1ccncc1 (centres undefined) | -1.06

SMILES | z-score
O=C1CCN(S(=O)(=O)c2ccccc2)N1 | -0.131
CC(C)NS(=O)(=O)c1ccc(NC(=S)NC(=O)c2ccc(-c3ccccc3)cc2)cc1 | -0.0819
N#Cc1ccc(Oc2cccc(C(=O)O)c2)cc1C#N | 0.43
CCn1c(COc2ccc(=O)n(-c3ccccc3)n2)nnc1SCc1cccc(OC)c1 | -0.259
CCCCCCCSc1nc(N)cc(=O)[nH]1 | -0.237
O=C(COC(=O)c1cnccn1)Nc1ccc(Cl)cc1 | 0.892
COc1ccc(OCc2cnc(Cl)s2)cc1 | -0.195
CCOc1ccccc1C1CC(=O)NC2=C1C(=O)CC(C)(C)C2 (centres undefined) | -0.35
CN(C)C(=O)/C(C#N)=C\c1cc(Br)c(Sc2ccc(Cl)cc2)o1 | -0.407
Cc1nc2ccccc2c(=O)n1NC(=O)c1c(O)c2c(n(CC(C)C)c1=O)CCCC2 | -1.28
CCCCn1c(=O)[nH]c(=O)c2c1ncn2Cc1ccco1 | -0.249
COc1cc(-c2cc(C(=O)OCC(=O)Nc3ccc4c(c3)OCO4)c3ccccc3n2)cc(OC)c1OC | -0.304
O=C(CSCc1ccc([N+](=O)[O-])cc1)Nc1ccc(S(=O)(=O)N2CCCCCC2)cc1 | 0.0337
Cn1c(=O)c2c(nc(NCCCN3CCOCC3)n2Cc2cccc(Cl)c2)n(C)c1=O | -0.133
COc1ccc(/C=C/C(=O)OCC(=O)Nc2cccc(C(C)=O)c2)cc1 | 1.31
O=C(NCCCCCCNC(=O)OC1CCS(=O)(=O)C1)OC1CCS(=O)(=O)C1 (centres undefined) | -0.259
O=[N+]([O-])c1ccc(/C=C/c2ccc3cccc([N+](=O)[O-])c3n2)cc1 | -0.0714
CCN(CC)c1nc(OC)nc(-n2nnc(C(C)=O)c2C)n1 | -0.577
CCOc1ccc(-c2nc(CSCC(=O)NC3CCCc4ccccc43)c(C)o2)cc1 (centres undefined) | 0.0515
CCOc1ccc(NC(=O)CSc2n[nH]c(N)n2)c([N+](=O)[O-])c1 | -0.194
Clc1ccccc1-c1nn2c(Cn3cnc4ccccc43)nnc2s1 | -0.619
O=c1nc(/C=C/c2cc([N+](=O)[O-])ccc2Cl)cc(C(F)(F)F)[nH]1 | -2.88

SMILES | z-score
CCc1ccc(OCC(=O)NC(=S)Nc2cccc(CO)c2)c(Br)c1 | 1.5
CCOc1ccc(/C(O)=C2/C(=O)C(=O)N(CCOCCO)C2c2ccccc2)cc1 (centres undefined) | -0.0871
Cc1ccc(SCC2(O)CCN(S(=O)(=O)c3ccc(Cl)cc3)CC2)cc1 | 0.472
O=C1c2ccccc2C(=O)N1CCc1nc2ccccc2c(=O)n1Cc1ccco1 | -0.153
CCOC(=O)c1c(C)n(C)c2ccc(OC)c(NC(=O)CN3CCN(C4CCCCC4)CC3)c12 | 0.148
Cc1occc1C(=O)OCC(=O)Nc1ccc(F)cc1 | 0.794
Nc1nc(SCC(=O)N2CCc3ccccc3C2)[nH]c(=O)c1-c1ccccc1 | -1.33
O=C(NCc1ccccc1Cl)c1ccc(Cn2cc(C(F)(F)F)ccc2=O)cc1 | -0.285
COc1ccc(/C=N/Nc2nnc(-c3ccccc3)c(=O)[nH]2)cc1 | -0.174
COc1ccccc1N1CCN(C(=O)c2c(-c3ccccc3Cl)noc2C)CC1 | 0.209
O=C(CSc1nc(Nc2ccccc2)nc(N2CCOCC2)n1)Nc1ccc2c(c1)OCCO2 | -0.527
Cc1ccc(C(=O)C[n+]2cc(-c3ccccc3)n3c2CCCCC3)cc1 | 0.0411
CC/S(CC1CC1(Cl)Cl)=N\S(=O)(=O)c1ccc(C)cc1 (centres undefined) | -0.695
Cc1cc(C)nc(N/N=C/c2cccc3ccccc23)n1 | -0.0683
COc1ccccc1NS(=O)(=O)c1cccc(NC(=O)NC2CCCCC2)c1 | -0.203
O=C(C1Cc2ccccc2CN1S(=O)(=O)c1ccc(F)cc1)N1CCOCC1 (centres undefined) | 0.521
Cc1ccc(/C=N/Nc2ccc(Cl)c(C(=O)O)c2)s1 | 0.684
CC1CCN(C(=S)Nc2ccc(SC(F)F)cc2)CC1 | 0.000321
COc1ccc2nc(SCC(=O)N3CCN(c4ccc(F)cc4)CC3)c(C#N)cc2c1 | -0.863
Cc1cc(C(=O)NCc2ccco2)no1 | -0.0735
N#Cc1nc(COc2ccccc2F)oc1N1CCCCCC1 | -0.537
